Reference: the supplement of paper PMC4604168 (melanoma cell lines)
The list shows a part of the results. Most values come without repeats; read them as rough.

Tests used:
Test in all cases: cell count relative to DMSO control; melanoma cells; higher = more viable cells
Settings in all cases: library dose: low library concentration; 72 h
[1] = system: MZ2-MEL
[2] = system: MeWo
[3] = system: RPMI7951
[4] = system: RVH-421
[5] = system: SkMel28
[6] = system: SkMel30
[7] = system: SkMel5
[8] = system: UACC257
[9] = system: UACC62
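Further: cell number obtained by counting DAPI-stained nuclei in high-throughput microscope images with image analysis software, screen run in 1,536-well plates.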

| Compound | cell count [1] | cell count [2] | cell count [3] | cell count [4] | cell count [5] | cell count [6] | cell count [7] | cell count [8] | cell count [9] |
| --- | --- | --- | --- | --- | --- | --- | --- | --- | --- |
| CC(C)(C)c1cnc(CSc2cnc(NC(=O)C3CCNCC3)s2)o1 + N#Cc1c(O)c2c(-c3ccc(-c4ccccc4O)cc3)csc2[nH]c1=O [A769662] (first compound 0.01 µM, partner dose 2 µM) | 104% | 96.6% | 79% | 101% | 88% | 83.5% | 102% | 81.5% | 90.7% |
| CCc1ccc(CCOc2ccc(CC3SC(=O)NC3=O)cc2)nc1 (stereo not drawn) [pioglitazone] + c1cc(-c2cnn3cc(-c4ccc(OCCN5CCCCC5)cc4)cnc23)ccn1 [Dorsomorphin] (first compound 2 µM, partner dose 0.4 µM) | 106% | 103% | 94% | 92.9% | 88.5% | 121% | 85.5% | 90.2% | 101% |
| Cc1ccc(NC(=O)c2cccc(N(C)C)c2)cc1NC(=O)c1ccc(O)cc1 + O=C1NC(=O)/C(=C/c2ccc(-c3ccc(F)cc3O)o2)S1 [AS252424] (first compound 2 µM, partner dose 1 µM) | 77.1% | 86.8% | 96% | 101% | 91.6% | 91.9% | 99.3% | 91.9% | 111% |
| CN(NC(=O)CC(=O)NN(C)C(=S)c1ccccc1)C(=S)c1ccccc1 + Cn1cc(/C=C2\C(=O)Nc3cccnc32)c2ccccc21 [GW441756] (first compound 0.006 µM, partner dose 0.4 µM) | 91.6% | 77.8% | 91.9% | 88.3% | 89.5% | 91.7% | 66.5% | 88.8% | 75.4% |
| CCc1ccc(CCOc2ccc(CC3SC(=O)NC3=O)cc2)nc1 (stereo not drawn) [pioglitazone] + CCN(CC)CCCCNc1ncc2cc(-c3cc(OC)cc(OC)c3)c(NC(=O)NC(C)(C)C)nc2n1 [PD173074] (first compound 2 µM, partner dose 0.1 µM) | 105% | 105% | 121% | 98.8% | 97.7% | 101% | 98.9% | 91.6% | 98.6% |
| CC(C)(C)c1cnc(CSc2cnc(NC(=O)C3CCNCC3)s2)o1 + O=c1cc(-c2cccc3c2Sc2ccccc2S3)oc(N2CCOCC2)c1 [KU55933] (first compound 0.01 µM, partner dose 1 µM) | 102% | 88% | 90.3% | 94.2% | 75.7% | 108% | 99.2% | 91.8% | 83.3% |
| COc1cc2c(Oc3ccc4[nH]c(C)cc4c3F)ncnc2cc1OCCCN1CCCC1 [cediranib] + O=S(=O)(c1ccccc1)N(CC(F)(F)F)c1ccc(C(O)(C(F)(F)F)C(F)(F)F)cc1 [T0901317] (first compound 0.4 µM, partner dose 1.4 µM) | 99.1% | 102% | 116% | 91.4% | 88.8% | 96.3% | 82.7% | 75.9% | 94.4% |
| Cc1ccc(NC(=O)c2cccc(N(C)C)c2)cc1NC(=O)c1ccc(O)cc1 + O=C(Nc1ccccc1)c1cc([N+](=O)[O-])ccc1Cl [GW9662] (first compound 2 µM, partner dose 2 µM) | 80.9% | 87.3% | 87.3% | 105% | 82.5% | 69.3% | 93.2% | 78.5% | 91.7% |
| Cc1ccc(NC(=O)c2cccc(N(C)C)c2)cc1NC(=O)c1ccc(O)cc1 + CCCCCCCCCCCC1=C(O)C(=O)C=C(O)C1=O [Embelin] (first compound 2 µM, partner dose 1.2 µM) | 77.6% | 96.6% | 93.7% | 98.7% | 103% | 89.9% | 103% | 103% | 95.8% |
| Cc1ccc(NC(=O)c2cccc(N(C)C)c2)cc1NC(=O)c1ccc(O)cc1 + N#Cc1c(O)c2c(-c3ccc(-c4ccccc4O)cc3)csc2[nH]c1=O [A769662] (first compound 2 µM, partner dose 2 µM) | 74.1% | 87.6% | 86.6% | 103% | 89.8% | 80.7% | 89.4% | 110% | 91.9% |
| CC(C)(C)c1cnc(CSc2cnc(NC(=O)C3CCNCC3)s2)o1 + CCc1ccc(CCOc2ccc(CC3SC(=O)NC3=O)cc2)nc1 [pioglitazone] (first compound 0.01 µM, partner dose 2 µM) | 100% | 106% | 89.5% | 84.9% | 113% | 91.7% | 97.9% | 83.6% | 98.4% |
| COc1cc2c(Oc3ccc4[nH]c(C)cc4c3F)ncnc2cc1OCCCN1CCCC1 [cediranib] + Oc1cc(-c2nc(-c3ccccc3)[nH]c2-c2ccncc2)ccc1Cl [L779450] (first compound 0.4 µM, partner dose 0.2 µM) | 78.6% | 96.8% | 95.5% | 86.2% | 85.2% | 103% | 83.7% | 80% | 54.6% |
